The supplement of paper PMC4604168 (melanoma cell lines)
Some of the results follow. Many values rest on one well or one pass, so single values are uncertain.

Experiments:
Assay in all cases: cell count relative to DMSO control; melanoma cells; higher = more viable cells
Conditions in all cases: library dose: low library concentration; 72 h
WM1716 = test system: WM1716
WM1745 = test system: WM1745
WM3526 = test system: WM3526
WM3619 = test system: WM3619
WM451Lu = test system: WM451Lu
WM115 = test system: WM115
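Also: cell number obtained by counting DAPI-stained nuclei in high-throughput microscope images with image analysis software, screen run in 1,536-well plates.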

Row | Compound | cell count (WM1716) | cell count (WM1745) | cell count (WM3526) | cell count (WM3619) | cell count (WM451Lu) | cell count (WM115)
1 | N#CC[C@H](C1CCCC1)n1cc(-c2ncnc3[nH]ccc23)cn1 [ruxolitinib] + O=C(O)C(=O)Nc1sc2c(c1C(=O)O)CCNC2 [TCS401] (first compound 1 µM, partner dose 1.66667 µM) | 109% | 96.9% | 87.4% | 81.5% | 97.2% | –
2 | N#CC[C@H](C1CCCC1)n1cc(-c2ncnc3[nH]ccc23)cn1 [ruxolitinib] + NC(=O)c1ccc(N(C(N)=O)c2c(F)cccc2F)nc1-c1ccc(F)cc1F [VX702] (first compound 1 µM, partner dose 0.4 µM) | 116% | 104% | – | 104% | 116% | 102%
3 | CC[C@]1(O)C[C@H]2CN(CCc3c([nH]c4ccccc34)[C@@](C(=O)OC)(c3cc4c(cc3OC)N(C=O)[C@H]3[C@@](O)(C(=O)OC)[C@H](OC(C)=O)[C@]5(CC)C=CCN6CC[C@]43[C@@H]65)C2)C1 [vincristine] + CC(=O)c1c(C)c2cnc(Nc3ccc(N4CCNCC4)cn3)nc2n(C2CCCC2)c1=O [palbociclib] (first compound 0.0001 µM, partner dose 0.04 µM) | 33.2% | 63.2% | 54.7% | 52.3% | 54.3% | 50.1%
4 | N#CC[C@H](C1CCCC1)n1cc(-c2ncnc3[nH]ccc23)cn1 [ruxolitinib] + Cn1nnc2c(C(N)=O)ncn2c1=O [temozolomide] (first compound 1 µM, partner dose 2 µM) | 91.2% | 91.9% | 102% | 106% | 104% | 116%
5 | N#CC[C@H](C1CCCC1)n1cc(-c2ncnc3[nH]ccc23)cn1 [ruxolitinib] + COc1cc(N2CCC(N3CCN(C)CC3)CC2)ccc1Nc1ncc(Cl)c(Nc2ccccc2S(=O)(=O)C(C)C)n1 [NVP-TAE684] (first compound 1 µM, partner dose 0.08 µM) | 98.1% | 87% | 91.5% | 102% | 94% | 100%
6 | CC[C@]1(O)C[C@H]2CN(CCc3c([nH]c4ccccc34)[C@@](C(=O)OC)(c3cc4c(cc3OC)N(C=O)[C@H]3[C@@](O)(C(=O)OC)[C@H](OC(C)=O)[C@]5(CC)C=CCN6CC[C@]43[C@@H]65)C2)C1 [vincristine] + CO[C@@H]1[C@H](N(C)C(=O)c2ccccc2)C[C@H]2O[C@]1(C)n1c3ccccc3c3c4c(c5c6ccccc6n2c5c31)C(=O)NC4 [Midostaurin] (first compound 0.0001 µM, partner dose 0.08 µM) | 24.5% | 97.9% | 76% | 78.4% | 81.6% | 54.1%
7 | Cc1cc(Nc2cc(N3CCN(C)CC3)nc(Sc3ccc(NC(=O)C4CC4)cc3)n2)n[nH]1 [Tozasertib] + COCC[n+]1c2c(n(Cc3cnccn3)c1C)C(=O)c1ccccc1C2=O [YM155] (first compound 0.006 µM, partner dose 0.0004 µM) | 85.9% | 92.1% | 111% | 112% | 85.5% | 90.6%
8 | N#CC[C@H](C1CCCC1)n1cc(-c2ncnc3[nH]ccc23)cn1 [ruxolitinib] + Nc1cccc2c1CN(C1CCC(=O)NC1=O)C2=O [lenalidomide] (first compound 1 µM, partner dose 1 µM) | 97.3% | 103% | – | 120% | 91.9% | 123%
9 | N#CC[C@H](C1CCCC1)n1cc(-c2ncnc3[nH]ccc23)cn1 [ruxolitinib] + COc1ccc(COc2ccc(Cc3cnc(N)nc3N)cc2OC)cc1 [GW2580] (first compound 1 µM, partner dose 1 µM) | 103% | 94.2% | – | 84.3% | 92.5% | 123%
10 | N#CC[C@H](C1CCCC1)n1cc(-c2ncnc3[nH]ccc23)cn1 [ruxolitinib] + Nc1nc(F)nc2c1ncn2[C@@H]1O[C@H](CO)[C@@H](O)[C@@H]1O [fludarabine] (first compound 1 µM, partner dose 0.2 µM) | 97.6% | – | 37.2% | 88.8% | 57.9% | 108%
11 | Cc1cc(Nc2cc(N3CCN(C)CC3)nc(Sc3ccc(NC(=O)C4CC4)cc3)n2)n[nH]1 [Tozasertib] + COc1cc2ncnc(Nc3ccc(Oc4ccccc4)cc3)c2cc1OC [SrcI1] (first compound 0.006 µM, partner dose 2 µM) | 89.1% | 68.7% | 72.8% | 91.4% | 118% | 88.8%
12 | CC[C@]1(O)C[C@H]2CN(CCc3c([nH]c4ccccc34)[C@@](C(=O)OC)(c3cc4c(cc3OC)N(C=O)[C@H]3[C@@](O)(C(=O)OC)[C@H](OC(C)=O)[C@]5(CC)C=CCN6CC[C@]43[C@@H]65)C2)C1 [vincristine] + CN(C)S(=O)(=O)c1ccc2c(c1)/C(=C/c1cc3c([nH]1)CCCC3)C(=O)N2 [SU6656] (first compound 0.0001 µM, partner dose 0.4 µM) | 46.5% | 84.4% | 47.2% | 55.7% | 54.7% | 29.9%
13 | Cc1cc(Nc2cc(N3CCN(C)CC3)nc(Sc3ccc(NC(=O)C4CC4)cc3)n2)n[nH]1 [Tozasertib] + O=C1NC(=O)/C(=C/c2ccc(-c3ccc(F)cc3O)o2)S1 [AS252424] (first compound 0.006 µM, partner dose 1 µM) | 94.1% | 82.1% | 80.1% | 79.1% | 94.8% | 87.6%
14 | N#CC[C@H](C1CCCC1)n1cc(-c2ncnc3[nH]ccc23)cn1 [ruxolitinib] + C[C@@H](Oc1cc(-c2cnn(C3CCNCC3)c2)cnc1N)c1c(Cl)ccc(F)c1Cl [Crizotinib] (first compound 1 µM, partner dose 0.2 µM) | – | 108% | 104% | 109% | 90.6% | 108%
15 | N#CC[C@H](C1CCCC1)n1cc(-c2ncnc3[nH]ccc23)cn1 [ruxolitinib] + O=c1cc(-c2cccc3c2Sc2ccccc2S3)oc(N2CCOCC2)c1 [KU55933] (first compound 1 µM, partner dose 1 µM) | – | 97.6% | 116% | 103% | – | 102%
